Reference: PubChem BioAssay (NCI)
Several values for one entry are separate records, joined by “and”; a condition that tells them apart may be missing. Identical values can stand only once.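 Compound exposure: 48 hours, 5 concentrations, 96-well plates. At the GI50, growth is halved. Definition used: TGI = concentration required for complete inhibition of growth.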 Peptide text beside a SMILES is read from it.

System: NCI-H322M lung
Assay: NCI anticancer screen, dose series, 48 h

SMILES | TGI | GI50 [µM]
Cn1nc2ccccc2cc1=O | > 100 µM | –
COc1ccc(C2C3=C(COC3=O)Oc3cc4c(cc32)OCO4)cc1 (centres undefined) | > 100 µM | –
C=C(CN(C)C)C(=O)c1ccc(Oc2ccccc2)cc1 | 52.9 µM | –
ClCCN(CCCl)c1ccc(CNCCCNCc2ccc(N(CCCl)CCCl)cc2)cc1 | > 100 µM | –
O=C1COCCN1C(=O)c1ccccc1Cl | > 100 µM | –
COc1cc2c3c(n(CCCN4CCCC(O)C4)c(=O)c2cc1OC)-c1cc2c(cc1C3=O)OCO2 (centres undefined) | 1.75 µM | 0.819
Cc1cc2nc(C(Cl)Cl)nc(-c3ccccc3)n2n1 | 4.72 µM | 1.84
O=C(C=Nc1ccccc1C(=O)[O-])c1cccs1.O=C(C=Nc1ccccc1C(=O)[O-])c1cccs1.[Zn+2] | 46.3 µM | –
O=c1c(=[n+]2ccc(=C([O-])c3ccccc3)cc2)/c(=N/S(=O)(=O)c2ccccc2)c(=O)c2ccccc12 | 29.2 µM | –
Oc1cccc2c1[nH]c1c(C3=C[C@@]4(O)CC/C=C\CCCCN5CC[C@@H]3[C@]3(CC6/C=C\CCCCN6[C@H]34)C5)nccc12 (some centres undefined) | 10.9 µM | –
C=CCC1C(=O)Nc2cccc3ncn(c23)C1=O (centres undefined) | > 100 µM | –
CC(=O)C1=C(O)CCC1=O | > 100 µM | –
C/C(=N/NC(N)=S)C(CN(C)C)C(C1=C(O)c2ccccc2OC1)c1ccccc1 (centres undefined) | > 100 µM | –
COc1cc(C)c(NC(=O)CN(C)C)cc1Nc1nc(Nc2cccc(F)c2C(N)=O)c2cc[nH]c2n1 | 6.33 µM | 1.57
O=C(O)c1ccccc1Nc1ccc2nnc(-c3ccncc3)n2n1 | 23.6 µM | 10.6
CCOP(=O)(OCC)C(Nc1ccc(C(=O)O)cc1)c1ccc(C(Nc2ccc(C(=O)O)cc2)P(=O)(OCC)OCC)cc1 (centres undefined) | > 100 µM | –
CC1c2cc(c3c(c2O)CN([C@@H](C)C2CCCCC2)CO3)C(C)c2cc(c3c(c2O)CN([C@@H](C)C2CCCCC2)CO3)C(C)c2cc(c3c(c2O)CN([C@@H](C)C2CCCCC2)CO3)C(C)c2cc1c1c(c2O)CN([C@@H](C)C2CCCCC2)CO1 (some centres undefined) | 2.73 µM | –
C[CH2][Sn]([CH2]C)([O]C(=O)c1ccc(F)cc1)[O][Sn]([CH2]C)([CH2]C)[O]C(=O)c1ccc(F)cc1 | > 100 µM | > 100
OC(CC(O)(C(F)(F)F)C(F)(F)F)C(O)c1ccco1 (centres undefined) | > 10 µM | –
O=C(NCCCCCCNC(=O)OCc1ccc2c(Cl)cc(Cl)c(O)c2n1)OCc1ccc2c(Cl)cc(Cl)c(O)c2n1 | 4.49 µM | 1.86
COC1=CC(=O)C2C(C1=O)C(c1ccc(OC)c(OC)c1)[C@H]2C (some centres undefined) | > 100 µM | –
CC(=O)[O][Bi]([c]1ccccc1)[c]1ccccc1 | 29.9 µM | 16.2

SMILES | TGI | GI50 [µM]
CCc1ccccc1NC(=O)C(=O)CC(=O)c1sc(Nc2ccccc2Cl)nc1C | > 100 µM | –
COC(=O)/C=C1/OC(c2ccc(C)cc2)=C(Cl)C1=O | 48.6 µM | –
COc1cccc(C2c3cc4c(cc3OC(N3CCCCC3)C2C)OCO4)c1OC (centres undefined) | 72.2 µM | –
COc1cc2c(cc1OC)C(=O)/C(=C/c1ccc([N+](=O)[O-])cc1)CC2 | > 10 µM | –
CC(C)C1COC(c2ccc3ccccc3c2-c2c(O[Si](C)(C)C(C)(C)C)ccc3ccccc23)=N1 (centres undefined) | 30.8 µM | –
COc1ccc(CNC(=O)[C@@H]2CCCN2C(=O)[C@@H]2CCCN2C(=O)[C@H](C(C)C)N(C)C(=O)[C@@H](NC(=O)[C@H](C(C)C)N(Cc2ccccc2)Cc2ccccc2)C(C)C)cc1OC (HELM PEPTIDE1{[CC(C)[C@@H](C(=O)[*:2])N(Cc1ccccc1)Cc1ccccc1].V.[meV].P.P.[COc1ccc(CN[*:1])cc1OC]}$$$$V2.0) | 29.9 µM | –
Cc1ccc2c(c1)C=CC(C#N)N2C(=O)Oc1ccccc1 (centres undefined) | 58.3 µM | –
Cn1c(=O)c2[nH]c(CCCCc3nc4c([nH]3)c(=O)n(C)c(=S)n4C)nc2n(C)c1=S | > 100 µM | –
Nc1ncnc2c1ncn2C1CC(OC2CCCCO2)C(CO)O1 (centres undefined) | > 100 µM | –
Oc1c(CN2CCN(c3ccccc3F)CC2)cc(Br)c2cccnc12 | > 100 µM | 1.2
Cc1ccc(NC(=O)CC2C(=O)Nc3ccccc3S2=O)c(C)c1 (centres undefined) | > 100 µM | –
O=NN(CCCl)C(=O)N[C@H]1CCCC[C@@H]1Cl | > 100 µM | –
O=S(=O)(O)C(Cc1nc2ccccc2[nH]1)S(=O)(=O)OCCC1S(=O)(=O)OCCOS1(=O)=O (centres undefined) | > 100 µM | –
COc1ccc2nc(-c3cc4c([nH]c5ccccc54)c(-c4ccc(F)c(F)c4)n3)[nH]c2c1 | 33.5 µM | 4.93
COc1ccc(C2CC(=O)c3c(O)c(OC)c(OC)c(OC)c3O2)cc1O (centres undefined) | > 100 µM | 3.22
COC(=O)C1=C(C)N(NC(N)=O)C(C)(O)C12CCOC2=O (centres undefined) | > 100 µM | –
CC(C)NC(=O)OCc1c(COC(=O)NC(C)C)c(-c2ccc[n+](COC(=O)C(C)(C)C)c2)n2c1CCC2 | > 100 µM | –
Cn1c(=O)c2c(nc(NCCNc3nc4c(c(=O)n(C)c(=O)n4C)n3C)n2C)n(C)c1=O | > 100 µM | –
Nc1nc(-c2ccccc2)cc(-c2ccc(Cl)cc2)c1-c1nc2ccccc2o1 | 31.5 µM | 16.7
CC[C@H]1C=CCC[C@@]2(C[C@@H]3CC[C@H]4[C@H](C(=O)OCCCCCCCCCCCCCCCC(=O)N(CCCN)C[C@@H](O)CCN)[C@]5(CCC[C@@H](C)O5)NC(=[N+]34)N2)O1 | 2.48 µM | –
O=c1ccnc(SCc2ccc(Cl)cc2)[nH]1 | > 100 µM | –
Cc1ccc(NC(=O)c2cc3ccccc3cc2O)c(C)c1.Cc1ccc(NC(=O)c2cc3ccccc3cc2[O-])c(C)c1.[Ni+2] | 8.15 µM | 2.47

SMILES | TGI | GI50 [µM]
CCCCCCNCCCNc1c2ccccc2nc2cccc([N+](=O)[O-])c12 | 0.0479 µM and 0.236 µM | 0.0132
CCN1CCN(c2ccc(Nc3ncc4ccc5ncn(C(C)C)c5c4n3)nc2)CC1 | 1.45 µM | 0.079
c1cc(NC2=NCCO2)c2c(c1)OCO2 | > 100 µM | –
Nc1nc(-c2ccc(Cl)cc2)cc(-c2ccccc2)c1-c1nc2ccccc2o1 | 20.9 µM | 4.8
N#Cc1nn(-c2cc(=O)[nH]c3ccc(Br)cc23)c(N)c1C#N | > 100 µM | > 100
Cn1c(=O)cc(N2CCCC2)[nH]c1=O | > 100 µM | –
CN1CCN(CC(=O)N2c3cccc4cccc(c34)N(C(=O)CN3CCN(C)CC3)C2c2cn(-c3ccccc3)nc2-c2cccc([N+](=O)[O-])c2)CC1 | 4.5 µM | 2.01
O=Nc1c(NO)ccc2nn(-c3ccccc3)nc12 | > 100 µM | –
O=S(=O)(CCCCl)SCCCCl | > 100 µM | –
COC(=O)Cc1cc(=O)n2c([nH]c3ccccc32)c1C#N | > 100 µM | –
O=C(/C=C/c1ccc2c(c1)OCO2)CC(=O)/C=C/c1ccc2c(c1)OCO2 | > 100 µM | –
O=C1OC(CS(=O)(=O)c2ccccc2)CC1O (centres undefined) | > 100 µM | –
FC(F)(F)c1cccc(C2SCc3nc4ccccc4n32)c1 (centres undefined) | > 100 µM | –
C=CCSSc1ncnc2c1ncn2C1OC(CO)C(O)C1O (centres undefined) | > 100 µM | 4.53
O=[N+]([O-])c1cc2c(c([N+](=O)[O-])c1)Nc1ccccc1O2 | 54.4 µM | 12.5
Cc1cn(C2CC(NC(=NCC3OC(n4cnc5c(N)ncnc54)CC3O)NC#N)C(CO)O2)c(=O)[nH]c1=O (centres undefined) | > 100 µM | –
COC(=O)[C@@]12C=CC(=O)[C@H]3C[C@@H](C(C(C)C)C1)[C@]32OC (some centres undefined) | > 100 µM | –
O=C(N/N=C(\c1nc2ccc(Cl)cc2[nH]c1=O)C(O)c1ccccc1Cl)c1ccncc1 (centres undefined) | > 100 µM | –
COc1cc(/C=C2\C[C@H]3[C@@H]4CC=C5C[C@@H](OC(C)=O)CC[C@]5(C)[C@H]4CC[C@]3(C)[C@H]2OC(C)=O)ccc1OCCN1CCCCC1 | > 50 µM | 18.8
COc1ccc(C2c3c(-c4ccccc4)nn(-c4ccccc4)c3Oc3ncn4nc(CC#N)nc4c32)cc1OC (centres undefined) | > 100 µM | –
